# ± gives the standard deviation of the averaged measurements. In all, about 4,100 sequences were measured (“arbitrary fluorescence units”: median about 780, highest 2% from about 22,000 on). Some of the results follow.
# Molecular target: T1, ETS1 (UniProt P14921)
# T1 sequence: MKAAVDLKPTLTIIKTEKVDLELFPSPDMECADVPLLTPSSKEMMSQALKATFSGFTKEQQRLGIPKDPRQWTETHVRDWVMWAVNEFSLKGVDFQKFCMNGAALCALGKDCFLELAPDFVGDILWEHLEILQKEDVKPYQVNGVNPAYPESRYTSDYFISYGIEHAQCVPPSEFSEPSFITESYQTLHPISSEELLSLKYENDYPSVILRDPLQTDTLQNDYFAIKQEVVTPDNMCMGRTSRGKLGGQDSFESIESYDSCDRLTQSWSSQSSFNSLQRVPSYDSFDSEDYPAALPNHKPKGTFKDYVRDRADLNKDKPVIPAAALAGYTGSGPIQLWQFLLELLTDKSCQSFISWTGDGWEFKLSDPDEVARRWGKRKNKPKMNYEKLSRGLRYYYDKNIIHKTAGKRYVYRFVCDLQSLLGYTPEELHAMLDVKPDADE
# Assay: ETS1 binding intensity (PBM fluorescence), ETS1 alone (arbitrary fluorescence units); higher = stronger binding
# Details: ETS1 concentration 1 nM; RUNX1 concentration 0 nM
# Summary of the method: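 Full-length recombinant human ETS1 (1 nM, no RUNX1) was incubated, per standard PBM protocols, on double-stranded Agilent 4 × 180k arrays of 36-bp genomic probes whose RUNX1 partner site was mutated. Bound ETS1 was detected with anti-ETS1 antibody (Cell Signaling Technology 14069) and Alexa488-conjugated secondary antibody, then scanned on a GenePix 4400A. Binding level is spot fluorescence intensity, summarised over replicate spots (four printed per sequence) and not normalised.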
row,Sequence,ETS1 binding intensity
1,CCACTTAGTGGCCAGGCCTCTGTCTCTTCCTCCCAT,303
2,GTGCATCCACCAGATGGTTCATTCTCAGGATATGGT,460
3,TGTGAGCGCATCATGGGTAGACTCACTTCCTCTTGT,630
4,AGGTTCCGGCGAAAGTGACCGAAAGTAGCCGCCGGG,4450
5,AGACTAGAGGCGGCTGTGTGAGTCAGGAAGAGGGGC,317
6,AGGCTGTAGGTGCCCTCGCCTTGCCCTCAGGAAGGG,333
7,CTGCACAAGGAAGCGCCTGTGTTGCTGTGAGCGGAG,399
8,ACGCCTGGGGTCCCAGCTACTCAGGAAGCTGAGGTG,358
9,TACCCAGAAAGGAAGTGGAACCTGAGGTGAGGCCCC,2070
10,CAGTCAATGTCGTAAGCTCATTTCCTGGAATGGCAA,2440
11,GAGAGCTGAGCGGAAGCTCAGCTGAGGGGCTGGTTG,1550
12,GGCTTCCGCCGCCACCACTGCCCCTCACCCGCCACG,5750
13,AGCCACGGACTTCCGCCTACAGGTCGCCGCTGGTCC,9040 ± 2200
14,AGCGGTATCCTGTTGTCTTACTCTGGTGACGTCATC,8760
15,TGACATCCTCTGAGGCAGCAAGCTTCGGTGAAGTCT,5050
16,GCCCACTTCCTGCCGTAAGAGAAATCCACTAACACA,33800
17,CCAGATTAGGAAACCCACCCGGCCTACAAAAAGCGG,409
18,AGGTCTCCGGAAGTGGGTCTTCGGCGCGCGGGATGC,10200
19,CAGAGTGGCTTGATGGTTTTGTGTTAGTCTTCCTGC,552
20,CAGCGGAAGAAAGACCTGCCACCTCCACCCCAAAGA,615
21,TTGCGACTCGCGGCGACCCCTACGCGGAACTCTCTC,356
22,GGCACTTCCGGTCCTGACCTGAAGCGCTCACCGTCA,55000
23,AGCTTTCCGTCGCTCCGGCCCGCCTCGCCGTAAGGC,898
24,TGCGCGGCCGAAGGGGCCAGACCCGGACGGCTCCAG,317
25,CTGCCGGAAGCTGCCCCTCCACCATTTTGGGGCCCG,3250

row,Sequence,ETS1 binding intensity
1,CAGCACGCAGGAAGCACATGTCGTGGGGCTCTTCCA,1210
2,AGACAATTAGAAACTACACCCATATCCTAAACCCAC,527
3,CCGCCTGCAGGGGCTGCCGGAGGCTTTTCCTGTTCC,550
4,TGGGTACTTCCTGTGACAAATCGAGTTGACAACATG,20900
5,AGTTCCAGCAACCTCGGCTCCCTCTTCCGGTCCCGG,3090
6,AAAGAGGAAATCACGTACCCGAAAATCACATGCACA,652
7,GGAGATGTGAGCGCCGAGAAGTGGAGCAGGAAGCGA,523
8,TGTGAAATCGCAGGGGTTCAGGGAGGAAGTGTAAGC,450
9,CCTTTGTTGGGGTTTTTGCAGGAAGAGAAGGGTTAG,530 ± 22
10,AAAGGCACGGTGGCTAGCGCGGGCTTCCTGGAGGAC,393
11,GAGACATGTGATTACATATTTAACGGCATCCTGCCA,465
12,GGAGCGGCGGAAGGGAGCTTGAGGCGGGAGGCTGAA,609
13,ACTTGGCAGTTCCGGGTCCGCGCCCCAGCGCGCCAC,2630
14,GGTTCAGCCCCAGGAAGATCAGACAACAGAAGCGGA,422
15,AAGAGCATGCACCCTCAGAGACAGGAAGTGGCGGCT,3110
16,GCCCTTCGGCGCCTGCGCGCTAAAAAGAGGAAGTTT,381
17,GCACTACATTTCCCAGCTTTCCTCGCGGCAAAGAGA,462
18,GCTCTCGCGGAAGATGTCCCTTCGGTGCAGCTGCCG,400
19,GTGCCGTGTGCCTCGGGTCGGTGCACCGTCCGGGAT,323
20,AAGGCTGAGGGTAAGGCGACATTTCCTGCCCCCGGG,2580
21,CCCCTCCCCACACCAGAACAAACCGGATCCTTGCGC,483
22,ATAAACAGGAAGCTGAGTATGTGAGCACAGACATTC,7370
23,CCCACCTCGGCCCACGCCGAGCGTGGCGGAACAGCT,385
24,AGGTTTGTGAGTTCACTCTGGTATTTATTTCCTCTT,559
25,GCACTGGAGGAAACTGCTCTCCCTTGCTGCTGGACG,432

row,Sequence,ETS1 binding intensity
1,GCTCCTCCCGGATATAAAGCCCCAAAGCACGCCACT,1760
2,GCCGCTGGAGCTTCGGGAAGCGGAAGTGCTCGTTGG,2460
3,TTACCCCAGGAAAAGCCTCCTCACCCCAGTGACCAG,454
4,GAGGGACAGGATGCCGCCAGGAACTACAAGAGCTTC,2011 ± 16
5,TGGAAGAGGAAGGGGCGGAGCTGCTTTGGGGCCGGC,504
6,TGTTTTCGCTCTTCCTGGCCTTGGGGGCAGCCAGGA,1410
7,GCGCTGTACTGCGCCTTGTGCCGCTTCCGCCAGAAG,829
8,CCCGAGGTCCAAAATCTGAGTAAAGCGGAAGTACGG,2030
9,CCACTGCTTTGTTTCCTCTCCAGATCGCGCATTTTG,1410
10,TGTGCATGTGATTTTCGGGTATGTGATTTCCTCTTT,539
11,CCACTGCCGTTGTAGGTAACGCGGACGTGGAAGAAC,425
12,GCATCTGGGGGAAGTTACACAACGACAGCTGTGCAG,596
13,TGGGAACTTCCTGTGGAGGAGTGCATTGTTGGACTT,15500
14,TTGGCCTGGGCTCTGGGCCACTTCCTGTGCTCTCCA,5490
15,AATGCAGCATTTCCTCTCCAGTTCACCAGAGGCCCC,5490
16,CCATGCGCTGCTTCCTTCCACTTATCGCCCTCGCAC,1400
17,CCACTAGCAGGAAAACGGGCCGAGGGACCCCAAGCA,504
18,AAATGTGTGTAGTTTCAGAACTTCCTCCCCACCTCC,1020
19,AGGTGGGAGGAAGTTCCTACCCCGGCGCGGAGTGCC,1510
20,TGGCCTCGGCCTGTAGACGCCCGGCTCCGGAAGTGC,687
21,CGGGACTTCCTGTCTTCCCTGTCGCGGAGCTCTGAA,27000
22,CACTCCCCCATTCCGGCTGCAGGTTGGGGTTTGGAA,400
23,CTCACTCTGGTGCTATACTTTGTTTCCTTTCTCTTT,599
24,GCGGCCCTGTTTCCTAATCACCCCAGTCAGAACCGT,513 ± 8.3
25,TCGTCTCTTCCGGATCCCTCCTGCACCGCCTACAGC,3480

row,Sequence,ETS1 binding intensity
1,CCGCGAACAGCAGAATTCCCGCCTTCCGCAGCCCGG,480 ± 6.2
2,GCTGCCTCTGCCGTAAAGATGCCCCCTTCCGCTGGA,432
3,CCTGAGGGCTGGGAGGCCAGGTCCTTTCCTGCCCAG,408
4,CCCACCCTCGCCGGAAGCCGAGCGGATTCTACATCA,3110
5,GAGAAGGGTGCGATCTAGGGAGGAGGAAGTGCAGGT,540
6,TACCTAGACCCTTTCCGCCCTTACCGTGGCCAGACA,1600
7,TTTCTGTGATTTGGTTTCTATAGAGACACTTCCTGT,1600
8,GTCGCTGGGGTTGCCTGAAACAGGAAATCCTTCTGC,1990
9,CCAACGCTCCCGGCAGCGCGTTCCGGAGCCGGTCCT,341 ± 9.4
10,GATGAGGGCTTGCGCGCAAACAGCCCGGAAATGAGG,1010
11,AGCTTTCCATCCGGGTCCCTGTCCGTGAGGTGCAGC,1800
12,CGGGCCGGAATCACGATCCACCTCGCCGCGCTGGCT,393
13,ACTTTGTCAGTGTAGTTTTCACATCCTGTCCTAGCT,2870
14,GCCAGGCGCTCACAGGTTGGCAGGAAGAGCACTTAG,527
15,AGCACGCCGGGAAATGGAGTCTCAGGTGGATTTTAA,805
16,TCTTCCTCCTCGCTGTCGCGGCCGGACGGAGGGTGG,846
17,AGGACCGGCTCCGGAACGCGCTGCCGGGAGCGTTGG,290 ± 3.4
18,CTCCCCCGTACATAGCCCTGAACTGAGGAAGTCATC,368
19,GCTTCTGAGGAAGTGCGTTTTGAGGGTAGGTGGAGT,724
20,GGGCCCCCGGAAAGAGCTTTGGCCGCTCGAGCCTGC,703
21,GAAGTGTGCTCTTCCGGTACCTGCTGTTCGTTGCGC,11600
22,CTTGGGGTCCCATCTTGCTTTTTTCTTCCGCTTTCC,448
23,AGACCCGGATATGCGCCGGGGACCCCCAGATCGCGC,3230
24,TGTTAAAATGTGAGCAGCAAGAAAGGAAATAGTGTT,461
25,CTGTTTCCGAGTAAAGTAGGGTGTCTGGGTCACATG,1280

row,Sequence,ETS1 binding intensity
1,CCGCCTCCGGAAGAATTCTCTTCGGGCATGTTGCTG,1030
2,GCCCCTAAACCGGATGCGGCAGCCACCGTGGACCCC,11100
3,GCAGGCGAAGGCGGAACTGGCGTGGGCAAACCAACC,463
4,ACAGAGAAACTACAGCCCTGAGCCTCTTCCTGACAT,382
5,GCGCCCGGCCCCGCGCACGCACCATTTCCTGGCTTC,734
6,ATGCTGTAGGTCCACTCCCTGCCACCTGCTTCCTGC,474
7,CTGTCTTGGTGTTCTGTTCTTATTTTAGTTTCCTGT,780
8,TTACAATCATTTCCTCTCTGTGCTTTGGTGACAAAT,7610
9,TACCCTTGTAGGCCCCCCGGCGACGCTTCCTGCTCC,487
10,TGGGCTTCTCTGTAGGTGTGGCGGGAAGTAGATGAA,362
11,TTTGATCTTTGGGAAGTGGCCTGTCGTTCTTATCAC,511
12,TAGAACTTCCTCAGACCACCTCCGCCGTAGTCTGCA,2800
13,AGCCCTAAACAACAGCTGAACCACTTCCTGTCACTG,6370
14,GCTGAGGGCTGTCTTCACCTCAGACGGGAAGCTGCT,399
15,TAGAAGGCAGGGGTCTGAGTTCCGGAGTAGAAGGCA,812
16,GTGGGCTGTCGTTAGGAGACAGGAAGGAGAATGCCA,857
17,CATTCATGTAGCTTATAGGCACATCCTGCCTGCCTA,2700
18,GACAGGAAGTGACCTCAATTTCCCCGGCCAGAGAAA,12100
19,GGCGGCGGGCTGCAGGCGCGGCCGGACGGGAGTTCG,327
20,CCCGGCCCAGGAAACTTCAGACTTCACCGAAGCTTC,524
21,TTTCACTTCCGGCATGTTTTTCACCTACAGGGATAT,35500
22,ACACCTCAGGAAGTGGCAGAGACTACAACAAGTCAG,1680
23,CCTCTGAGCTGTGATAACACCACTTCCTCCACTCCA,1150
24,TCGGAACGGAACGGAGCAGAGTCGTGCGTGGATGAG,370
25,CCGACAGGATGGGTGAGCTGTCGTGGCCGGTTTAAG,678

# From the supplement of paper PMC10681739
